These results are taken from the supplement of paper PMC10369915.

This is one part of the list. No stated cut-off is given here; in the data, active = 3.2 or more and inactive = the rest. Most of these values are background signal.
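Further: displayed peptides selected on beads carrying the immobilized SH2 domain, with library peptides lacking any tyrosine serving as negative controls.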

The target of the first experiment is SHP2 C-SH2 domain E139D. Nature of the experiment: enrichment score (SH2-bound / input frequency) (ratio); bacterial display of known human phosphotyrosine sites (pTyr-Var adds point mutants) read by sequencing; higher = stronger binding; tyrosines were phosphorylated by kinases first. The following applies: peptide library: pTyr-Var.
Regarding VSNFNYFYHRE [KCNA1_Y413], the enrichment score was inactive: 1.33.
Same read-out and setting: as for NFRTTYINANE [KCNH2_Y475_V476I], the figure is inactive: 0.962.
Still for that read-out and setting: next, SETSRYLSDLF [KCNJ3_Y67]: inactive: 1.12; WSFNLYDINKD [KCNIP3_Y174_A170S]: inactive: 1.17; NFRTIYVNANE [KCNH2_Y475_T474I]: inactive: 2.04.
Turning to SIKNKYVTALY [KCNH2_Y611_D609N], the enrichment score is inactive: 1.34.
LEQRPYRRGSE [KCNJ12_Y427_E430G]: the enrichment score was inactive: 0.281.
Same read-out and setting: as for SRGHQYQELPR [KCNH2_Y1009_R1007H], the figure is inactive: 0.973.
As to DPYHVYIKNRV [KCNE3_Y95], the enrichment score is inactive: 0.923.
The same measure, in the same setting: as for SIKDKHVTALF [KCNH2_Y611_Y611H_YF], the figure is inactive: 0.58; as for DPFHVYIKNRV [KCNE3_Y95_YF], inactive: 1.06.
On to SIKDKYVTVLF [KCNH2_Y611_A614V_YF], for which the enrichment score is inactive: 1.53.
Regarding VSNFNYFFHRE [KCNA1_Y413_YF], the enrichment score is inactive: 1.92.
Same read-out and setting: as for RGDTVYTVNCM [KBTBD13_Y404_R408C], the figure is inactive: 0.978; as for GGEEFYVHFVG [KAT8_Y90_R86G_YF], inactive: 1.1.
Regarding NQNIGYELGHR [KCNN3_Y268_K269E], the enrichment score is inactive: 0.696.
With RGDTVYTVNRM [KBTBD13_Y404], the enrichment score was inactive: 0.55.
In the case of GKLIFHDLRGE [KARS1_Y145_Y145H], the enrichment score was inactive: 1.06.
Same read-out and setting: next, VWALTYCDLHK [KCNH2_Y827_R823W]: inactive: 1.58.

A further experiment concerns the target SHP2 C-SH2 domain wild-type. The experiment is described as above. Conditions: peptide library: pTyr-Var.
As to VSNFNYFYHRE [KCNA1_Y413], the enrichment score was inactive: 1.55.
On to NFRTTYINANE [KCNH2_Y475_V476I], for which the enrichment score is inactive: 0.996.
Consider SETSRYLSDLF [KCNJ3_Y67], for which the enrichment score was inactive: 1.08.
Turning to WSFNLYDINKD [KCNIP3_Y174_A170S], the enrichment score is inactive: 0.971.
In the case of NFRTIYVNANE [KCNH2_Y475_T474I], the enrichment score is active: 4.32.
Consider SIKNKYVTALY [KCNH2_Y611_D609N], for which the enrichment score is inactive: 0.661.
Still for that read-out and setting: as for LEQRPYRRGSE [KCNJ12_Y427_E430G], the figure is inactive: 0.26.
Same read-out and setting: next, SRGHQYQELPR [KCNH2_Y1009_R1007H]: inactive: 0.679.
For DPYHVYIKNRV [KCNE3_Y95], the enrichment score is inactive: 0.825.
Still for that read-out and setting: next, SIKDKHVTALF [KCNH2_Y611_Y611H_YF]: inactive: 0.567; DPFHVYIKNRV [KCNE3_Y95_YF]: inactive: 0.709; SIKDKYVTVLF [KCNH2_Y611_A614V_YF]: inactive: 3.18.
Take VSNFNYFFHRE [KCNA1_Y413_YF]: the enrichment score is inactive: 1.56.
On to RGDTVYTVNCM [KBTBD13_Y404_R408C], for which the enrichment score is inactive: 1.28.
As for GGEEFYVHFVG [KAT8_Y90_R86G_YF], the enrichment score is inactive: 1.2.
Consider NQNIGYELGHR [KCNN3_Y268_K269E], for which the enrichment score is inactive: 0.741.
Same read-out and setting: as for RGDTVYTVNRM [KBTBD13_Y404], the figure is inactive: 0.575; as for GKLIFHDLRGE [KARS1_Y145_Y145H], inactive: 1.02.
With VWALTYCDLHK [KCNH2_Y827_R823W], the enrichment score is inactive: 1.51.

For another experiment, the target named is SHP2 N-SH2 domain L43F. The description is as above. The following applies: peptide library: pTyr-Var.
For VSNFNYFYHRE [KCNA1_Y413], the enrichment score was inactive: 1.12.
NFRTTYINANE [KCNH2_Y475_V476I]: the enrichment score was inactive: 1.1.
As for SETSRYLSDLF [KCNJ3_Y67], the enrichment score was inactive: 0.999.
For WSFNLYDINKD [KCNIP3_Y174_A170S], the enrichment score was inactive: 0.991.
Still for that read-out and setting: as for NFRTIYVNANE [KCNH2_Y475_T474I], the figure is inactive: 1.86; as for SIKNKYVTALY [KCNH2_Y611_D609N], inactive: 0.822; as for LEQRPYRRGSE [KCNJ12_Y427_E430G], inactive: 0.382.
The same measure, in the same setting: as for SRGHQYQELPR [KCNH2_Y1009_R1007H], the figure is inactive: 0.722.
As for DPYHVYIKNRV [KCNE3_Y95], the enrichment score is inactive: 0.684.
For the molecule SIKDKHVTALF [KCNH2_Y611_Y611H_YF], the enrichment score was inactive: 0.632.
Consider DPFHVYIKNRV [KCNE3_Y95_YF], for which the enrichment score is inactive: 0.813.
Same read-out and setting: next, SIKDKYVTVLF [KCNH2_Y611_A614V_YF]: active: 4.72; VSNFNYFFHRE [KCNA1_Y413_YF]: inactive: 1.51; RGDTVYTVNCM [KBTBD13_Y404_R408C]: inactive: 1.05.
Same read-out and setting: next, GGEEFYVHFVG [KAT8_Y90_R86G_YF]: inactive: 0.968; NQNIGYELGHR [KCNN3_Y268_K269E]: inactive: 0.682; RGDTVYTVNRM [KBTBD13_Y404]: inactive: 0.588.
For GKLIFHDLRGE [KARS1_Y145_Y145H], the enrichment score was inactive: 1.25.
Regarding VWALTYCDLHK [KCNH2_Y827_R823W], the enrichment score is inactive: 1.1.

In another experiment the target is SHP2 N-SH2 domain T42A. Described as above. The following applies: peptide library: pTyr-Var.
For the molecule VSNFNYFYHRE [KCNA1_Y413], the enrichment score was inactive: 1.23.
For NFRTTYINANE [KCNH2_Y475_V476I], the enrichment score was inactive: 2.39.
As to SETSRYLSDLF [KCNJ3_Y67], the enrichment score is inactive: 1.36.
On to WSFNLYDINKD [KCNIP3_Y174_A170S], for which the enrichment score is inactive: 1.18.
Regarding NFRTIYVNANE [KCNH2_Y475_T474I], the enrichment score was active: 7.72.
Turning to SIKNKYVTALY [KCNH2_Y611_D609N], the enrichment score was inactive: 0.689.
For the molecule LEQRPYRRGSE [KCNJ12_Y427_E430G], the enrichment score was inactive: 0.25.
As for SRGHQYQELPR [KCNH2_Y1009_R1007H], the enrichment score was inactive: 0.527.
With DPYHVYIKNRV [KCNE3_Y95], the enrichment score is inactive: 0.752.
As for SIKDKHVTALF [KCNH2_Y611_Y611H_YF], the enrichment score is inactive: 0.403.
Take DPFHVYIKNRV [KCNE3_Y95_YF]: the enrichment score was inactive: 0.909.
As to SIKDKYVTVLF [KCNH2_Y611_A614V_YF], the enrichment score was active: 6.28.
As to VSNFNYFFHRE [KCNA1_Y413_YF], the enrichment score was inactive: 1.58.
For the molecule RGDTVYTVNCM [KBTBD13_Y404_R408C], the enrichment score is inactive: 0.945.
Still for that read-out and setting: next, GGEEFYVHFVG [KAT8_Y90_R86G_YF]: inactive: 1.01; NQNIGYELGHR [KCNN3_Y268_K269E]: inactive: 0.692.
Turning to RGDTVYTVNRM [KBTBD13_Y404], the enrichment score is inactive: 0.645.
Regarding GKLIFHDLRGE [KARS1_Y145_Y145H], the enrichment score was inactive: 1.18.
In the case of VWALTYCDLHK [KCNH2_Y827_R823W], the enrichment score was inactive: 1.16.

The next experiment concerns the target SHP2 N-SH2 domain T52S. Described as above. Conditions: peptide library: pTyr-Var.
For VSNFNYFYHRE [KCNA1_Y413], the enrichment score was inactive: 1.21.
Turning to NFRTTYINANE [KCNH2_Y475_V476I], the enrichment score was inactive: 0.826.
Regarding SETSRYLSDLF [KCNJ3_Y67], the enrichment score was inactive: 1.01.
Take WSFNLYDINKD [KCNIP3_Y174_A170S]: the enrichment score was inactive: 1.03.
NFRTIYVNANE [KCNH2_Y475_T474I]: the enrichment score is inactive: 1.91.
As for SIKNKYVTALY [KCNH2_Y611_D609N], the enrichment score was inactive: 0.905.
As to LEQRPYRRGSE [KCNJ12_Y427_E430G], the enrichment score is inactive: 0.298.
Still for that read-out and setting: as for SRGHQYQELPR [KCNH2_Y1009_R1007H], the figure is inactive: 0.593; as for DPYHVYIKNRV [KCNE3_Y95], inactive: 0.832; as for SIKDKHVTALF [KCNH2_Y611_Y611H_YF], inactive: 0.483.
For the molecule DPFHVYIKNRV [KCNE3_Y95_YF], the enrichment score was inactive: 1.07.
Consider SIKDKYVTVLF [KCNH2_Y611_A614V_YF], for which the enrichment score is active: 6.34.
Turning to VSNFNYFFHRE [KCNA1_Y413_YF], the enrichment score was inactive: 1.71.
Same read-out and setting: next, RGDTVYTVNCM [KBTBD13_Y404_R408C]: inactive: 1.08; GGEEFYVHFVG [KAT8_Y90_R86G_YF]: inactive: 0.925; NQNIGYELGHR [KCNN3_Y268_K269E]: inactive: 0.859.
As to RGDTVYTVNRM [KBTBD13_Y404], the enrichment score was inactive: 0.601.
Regarding GKLIFHDLRGE [KARS1_Y145_Y145H], the enrichment score is inactive: 1.12.
As for VWALTYCDLHK [KCNH2_Y827_R823W], the enrichment score is inactive: 1.02.

Another experiment deals with SHP2 N-SH2 domain wild-type. The description is as above. Conditions: peptide library: pTyr-Var.
Regarding VSNFNYFYHRE [KCNA1_Y413], the enrichment score is inactive: 1.19.
NFRTTYINANE [KCNH2_Y475_V476I]: the enrichment score was inactive: 0.877.
With SETSRYLSDLF [KCNJ3_Y67], the enrichment score was inactive: 1.03.
On to WSFNLYDINKD [KCNIP3_Y174_A170S], for which the enrichment score was inactive: 1.14.
For the molecule NFRTIYVNANE [KCNH2_Y475_T474I], the enrichment score is inactive: 1.75.
For SIKNKYVTALY [KCNH2_Y611_D609N], the enrichment score was inactive: 0.772.
LEQRPYRRGSE [KCNJ12_Y427_E430G]: the enrichment score was inactive: 0.292.
For SRGHQYQELPR [KCNH2_Y1009_R1007H], the enrichment score is inactive: 0.881.
Consider DPYHVYIKNRV [KCNE3_Y95], for which the enrichment score is inactive: 0.76.
Turning to SIKDKHVTALF [KCNH2_Y611_Y611H_YF], the enrichment score was inactive: 0.524.
As to DPFHVYIKNRV [KCNE3_Y95_YF], the enrichment score was inactive: 0.827.
For SIKDKYVTVLF [KCNH2_Y611_A614V_YF], the enrichment score is inactive: 2.29.
As for VSNFNYFFHRE [KCNA1_Y413_YF], the enrichment score is inactive: 1.46.
Turning to RGDTVYTVNCM [KBTBD13_Y404_R408C], the enrichment score is inactive: 1.35.
As to GGEEFYVHFVG [KAT8_Y90_R86G_YF], the enrichment score was inactive: 1.32.
For NQNIGYELGHR [KCNN3_Y268_K269E], the enrichment score is inactive: 0.796.
For RGDTVYTVNRM [KBTBD13_Y404], the enrichment score is inactive: 0.698.
Still for that read-out and setting: as for GKLIFHDLRGE [KARS1_Y145_Y145H], the figure is inactive: 1.15; as for VWALTYCDLHK [KCNH2_Y827_R823W], inactive: 1.31.
